Assay results taken from PMC9911399, “Two distinct binding modes provide the RNA-binding protein RbFox with extraordinary sequence specificity”.
Positions count from the first letter of the chain named. This is one part of the list.

T1: RBFOX1 RRM RbFoxmut (Fox-RRM*) (Homo sapiens, UniProt Q9NWB1 109-208, R118D;E147R;N151S;E152T)
T1 sequence: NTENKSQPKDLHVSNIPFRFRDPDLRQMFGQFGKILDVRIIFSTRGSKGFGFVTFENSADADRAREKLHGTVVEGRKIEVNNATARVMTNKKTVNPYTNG

B1: ACCUGAU (DNA:RNA)
RNA: GGGAGACCGGAAUUCAGAUUGUCCACCUGAUUUAAAUCCCGUCGUAGCCACCA
DNA 1: CAATCTGAATTCCGGTCTCCC
DNA 2: TGGTGGCTACGACGGGATT
B2: ACCCUAA (DNA:RNA)
RNA: B1 RNA with U28C, G29U, U31A
DNA 1: CAATCTGAATTCCGGTCTCCC
DNA 2: TGGTGGCTACGACGGGATT
B3: CCGAUGA (DNA:RNA)
RNA: B1 RNA with A25C, C27G, U28A, G29U, A30G, U31A
DNA 1: CAATCTGAATTCCGGTCTCCC
DNA 2: TGGTGGCTACGACGGGATT
B4: GCACUUA (DNA:RNA)
RNA: B1 RNA with A25G, C27A, U28C, G29U, A30U, U31A
DNA 1: CAATCTGAATTCCGGTCTCCC
DNA 2: TGGTGGCTACGACGGGATT
B5: ACAAGCG (DNA:RNA)
RNA: B1 RNA with C27A, U28A, A30C, U31G
DNA 1: CAATCTGAATTCCGGTCTCCC
DNA 2: TGGTGGCTACGACGGGATT
B6: CGUAGGG (DNA:RNA)
RNA: B1 RNA with A25C, C26G, C27U, U28A, A30G, U31G
DNA 1: CAATCTGAATTCCGGTCTCCC
DNA 2: TGGTGGCTACGACGGGATT
B7: UACAAAG (DNA:RNA)
RNA: B1 RNA with A25U, C26A, U28A, G29A, U31G
DNA 1: CAATCTGAATTCCGGTCTCCC
DNA 2: TGGTGGCTACGACGGGATT
B8: AUGAAGU (DNA:RNA)
RNA: B1 RNA with C26U, C27G, U28A, G29A, A30G
DNA 1: CAATCTGAATTCCGGTCTCCC
DNA 2: TGGTGGCTACGACGGGATT
B9: CUUGAGU (DNA:RNA)
RNA: B1 RNA with A25C, C26U, C27U, U28G, G29A, A30G
DNA 1: CAATCTGAATTCCGGTCTCCC
DNA 2: TGGTGGCTACGACGGGATT
B10: GCUUGCU (DNA:RNA)
RNA: B1 RNA with A25G, C27U, A30C
DNA 1: CAATCTGAATTCCGGTCTCCC
DNA 2: TGGTGGCTACGACGGGATT
B11: GUUAUCA (DNA:RNA)
RNA: GGGAGACCGGAAUUCAGAUUGUCCGUUAUCAUUAAAUCCCGUCGUAGCCACCA
DNA 1: CAATCTGAATTCCGGTCTCCC
DNA 2: TGGTGGCTACGACGGGATT
B12: AGAUUAA (DNA:RNA)
RNA: B1 RNA with C26G, C27A, G29U, U31A
DNA 1: CAATCTGAATTCCGGTCTCCC
DNA 2: TGGTGGCTACGACGGGATT
B13: CGAGGUC (DNA:RNA)
RNA: B1 RNA with A25C, C26G, C27A, U28G, A30U, U31C
DNA 1: CAATCTGAATTCCGGTCTCCC
DNA 2: TGGTGGCTACGACGGGATT
B14: CACUUCU (DNA:RNA)
RNA: B1 RNA with A25C, C26A, G29U, A30C
DNA 1: CAATCTGAATTCCGGTCTCCC
DNA 2: TGGTGGCTACGACGGGATT
B15: CUCGCUC (DNA:RNA)
RNA: B1 RNA with A25C, C26U, U28G, G29C, A30U, U31C
DNA 1: CAATCTGAATTCCGGTCTCCC
DNA 2: TGGTGGCTACGACGGGATT
B16: GCACCAC (DNA:RNA)
RNA: B1 RNA with A25G, C27A, U28C, G29C, U31C
DNA 1: CAATCTGAATTCCGGTCTCCC
DNA 2: TGGTGGCTACGACGGGATT
B17: GUUUCCU (DNA:RNA)
RNA: B11 RNA with A28U, U29C, A31U
DNA 1: CAATCTGAATTCCGGTCTCCC
DNA 2: TGGTGGCTACGACGGGATT
B18: CUCCCUU (DNA:RNA)
RNA: B1 RNA with A25C, C26U, U28C, G29C, A30U
DNA 1: CAATCTGAATTCCGGTCTCCC
DNA 2: TGGTGGCTACGACGGGATT
B19: GUUCGGU (DNA:RNA)
RNA: B11 RNA with A28C, U29G, C30G, A31U
DNA 1: CAATCTGAATTCCGGTCTCCC
DNA 2: TGGTGGCTACGACGGGATT
B20: AGUAGUU (DNA:RNA)
RNA: B1 RNA with C26G, C27U, U28A, A30U
DNA 1: CAATCTGAATTCCGGTCTCCC
DNA 2: TGGTGGCTACGACGGGATT
B21: CAUGAGU (DNA:RNA)
RNA: B1 RNA with A25C, C26A, C27U, U28G, G29A, A30G
DNA 1: CAATCTGAATTCCGGTCTCCC
DNA 2: TGGTGGCTACGACGGGATT
B22: AGUGUCG (DNA:RNA)
RNA: B11 RNA with G25A, U26G, A28G, A31G
DNA 1: CAATCTGAATTCCGGTCTCCC
DNA 2: TGGTGGCTACGACGGGATT
B23: GCGCAUA (DNA:RNA)
RNA: B11 RNA with U26C, U27G, A28C, U29A, C30U
DNA 1: CAATCTGAATTCCGGTCTCCC
DNA 2: TGGTGGCTACGACGGGATT
B24: GCGGGCA (DNA:RNA)
RNA: B11 RNA with U26C, U27G, A28G, U29G
DNA 1: CAATCTGAATTCCGGTCTCCC
DNA 2: TGGTGGCTACGACGGGATT
B25: UGAUUCC (DNA:RNA)
RNA: B11 RNA with G25U, U26G, U27A, A28U, A31C
DNA 1: CAATCTGAATTCCGGTCTCCC
DNA 2: TGGTGGCTACGACGGGATT
B26: UGCAAGG (DNA:RNA)
RNA: B1 RNA with A25U, C26G, U28A, G29A, A30G, U31G
DNA 1: CAATCTGAATTCCGGTCTCCC
DNA 2: TGGTGGCTACGACGGGATT
B27: CGUAUCU (DNA:RNA)
RNA: B11 RNA with G25C, U26G, A31U
DNA 1: CAATCTGAATTCCGGTCTCCC
DNA 2: TGGTGGCTACGACGGGATT
B28: AAAGGUG (DNA:RNA)
RNA: B1 RNA with C26A, C27A, U28G, A30U, U31G
DNA 1: CAATCTGAATTCCGGTCTCCC
DNA 2: TGGTGGCTACGACGGGATT
B29: UUACGCA (DNA:RNA)
RNA: B11 RNA with G25U, U27A, A28C, U29G
DNA 1: CAATCTGAATTCCGGTCTCCC
DNA 2: TGGTGGCTACGACGGGATT
B30: GCAGAAU (DNA:RNA)
RNA: B1 RNA with A25G, C27A, U28G, G29A
DNA 1: CAATCTGAATTCCGGTCTCCC
DNA 2: TGGTGGCTACGACGGGATT
B31: AAACGGC (DNA:RNA)
RNA: B1 RNA with C26A, C27A, U28C, A30G, U31C
DNA 1: CAATCTGAATTCCGGTCTCCC
DNA 2: TGGTGGCTACGACGGGATT

The binders below were run against T1, RBFOX1 RRM RbFoxmut (Fox-RRM*) (assay: EMSA; HiTS-Eq, 1 nM pool, 10 min; buffer printed only for the single-RNA assays: 10 mM Tris pH 7.5, 150 mM NaCl, 3.4 mM EDTA, 0.001% NP-40, 30 C). Conditions: tags: His6 N-terminal (pET28a); label: 5' 32P.
How it was run: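 A pool of RNA with 7 randomized nucleotides, 5′-radiolabelled and with DNA-annealed flanks, was equilibrated at 1 nM for 10 min in 50 µL with purified RbFox RRM, wild type or mutant, across increasing protein concentrations. Free RNA was separated by 8% native PAGE, excised, reverse-transcribed, barcoded by PCR and sequenced. Relative association constants were obtained from read-count changes of each RNA species versus the control reaction and normalised to the cognate motif.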

Q: With B1 as the binder, how does the binding signal read?
A: 0.0597 KA relative to UGCAUGU

Q: How did the binding signal turn out when B2 was run?
A: 0.0841 KA relative to UGCAUGU

Q: How did the binding signal turn out when B3 was run?
A: 0.069 KA relative to UGCAUGU

Q: Which binding signal does the source give for B4 here?
A: 0.101 KA relative to UGCAUGU

Q: With B5 as the binder, how does the binding signal read?
A: 0.0957 KA relative to UGCAUGU

Q: For B6, which binding signal is on record?
A: 0.0658 KA relative to UGCAUGU

Q: How did the binding signal turn out when B7 was run?
A: 0.0551 KA relative to UGCAUGU

Q: B8 was tested. Which binding signal did it give?
A: 0.108 KA relative to UGCAUGU

Q: How did the binding signal turn out when B9 was run?
A: 0.13 KA relative to UGCAUGU

Q: How did the binding signal turn out when B10 was run?
A: 0.166 KA relative to UGCAUGU

Q: B11 was tested. Which binding signal did it give?
A: 0.18 KA relative to UGCAUGU

Q: How did the binding signal turn out when B12 was run?
A: 0.104 KA relative to UGCAUGU

Q: With B13 as the binder, how does the binding signal read?
A: 0.165 KA relative to UGCAUGU

Q: For B14, which binding signal is on record?
A: 0.0926 KA relative to UGCAUGU

Q: Which binding signal does the source give for B15 here?
A: 0.0607 KA relative to UGCAUGU

Q: With B16 as the binder, how does the binding signal read?
A: 0.0681 KA relative to UGCAUGU

Q: How did the binding signal turn out when B17 was run?
A: 0.0859 KA relative to UGCAUGU

Q: B18 was tested. Which binding signal did it give?
A: 0.0481 KA relative to UGCAUGU

Q: Which binding signal does the source give for B19 here?
A: 0.122 KA relative to UGCAUGU

Q: For B20, which binding signal is on record?
A: 0.101 KA relative to UGCAUGU

Q: For B21, which binding signal is on record?
A: 0.149 KA relative to UGCAUGU

Q: With B22 as the binder, how does the binding signal read?
A: 0.141 KA relative to UGCAUGU

Q: Which binding signal does the source give for B23 here?
A: 0.152 KA relative to UGCAUGU

Q: Which binding signal does the source give for B24 here?
A: 0.0836 KA relative to UGCAUGU

Q: Which binding signal does the source give for B25 here?
A: 0.0628 KA relative to UGCAUGU

Q: B26 was tested. Which binding signal did it give?
A: 0.0807 KA relative to UGCAUGU

Q: B27 was tested. Which binding signal did it give?
A: 0.125 KA relative to UGCAUGU

Q: How did the binding signal turn out when B28 was run?
A: 0.104 KA relative to UGCAUGU

Q: Which binding signal does the source give for B29 here?
A: 0.13 KA relative to UGCAUGU

Q: How did the binding signal turn out when B30 was run?
A: 0.148 KA relative to UGCAUGU

Q: B31 was tested. Which binding signal did it give?
A: 0.085 KA relative to UGCAUGU
